Hit rate of the full screen: of about 45,000 compounds, about 65 (0.1%) were called active. Calls follow the shape of the dose curve; as a rule, active = well fitted activation curve with a large enough effect; inconclusive = small, poorly fitted or top-dose-only effect; inactive = no such curve, though single readings can be large or run the other way. Some of the results follow.
Each molecule was assayed against Galactocerebrosidase (Homo sapiens) (UniProt P54803) (assay: A Novel Cell-Based Assay to Identify Small Molecules for B -Galactocerebrosidase). Settings: 145M-Twi-hGALC-G270D cells (Twitcher mouse brain line with human GALC G270D), HMU-beta-Gal fluorescence, 48 h; series mostly up to 57.5 µM; activation: at the top concentration.
Chain of UniProt P54803 (P54803 whole entry, looked up): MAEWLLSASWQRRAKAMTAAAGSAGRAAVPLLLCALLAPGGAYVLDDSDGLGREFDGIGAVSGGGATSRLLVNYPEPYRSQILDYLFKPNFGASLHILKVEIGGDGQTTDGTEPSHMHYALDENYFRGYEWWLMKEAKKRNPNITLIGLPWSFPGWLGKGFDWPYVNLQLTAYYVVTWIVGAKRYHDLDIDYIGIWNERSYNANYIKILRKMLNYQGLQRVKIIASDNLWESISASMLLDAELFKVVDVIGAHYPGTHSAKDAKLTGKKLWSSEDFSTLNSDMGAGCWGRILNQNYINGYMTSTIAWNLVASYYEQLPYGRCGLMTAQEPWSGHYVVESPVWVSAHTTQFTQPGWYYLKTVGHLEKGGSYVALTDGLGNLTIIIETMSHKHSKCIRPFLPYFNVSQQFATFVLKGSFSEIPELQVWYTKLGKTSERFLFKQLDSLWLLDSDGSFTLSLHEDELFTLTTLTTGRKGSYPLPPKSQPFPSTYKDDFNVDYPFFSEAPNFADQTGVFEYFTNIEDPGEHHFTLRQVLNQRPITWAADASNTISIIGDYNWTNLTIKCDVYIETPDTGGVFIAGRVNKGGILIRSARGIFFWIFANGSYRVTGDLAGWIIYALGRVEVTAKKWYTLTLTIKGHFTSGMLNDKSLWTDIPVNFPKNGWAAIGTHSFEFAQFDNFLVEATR
Method in brief: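 Fluorescence readout: HMU-β-gal cleavage by mutant GALC (0.1 mM final, citrate/phosphate pH 5.2 with 1 mg/mL taurocholate), stopped with carbonate/bicarbonate plus Triton X-100. Cells: murine Twitcher 145M-Twi expressing human G270D GALC; qHTS for activators.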
Also: 0% is about no effect; nearly all actives have a fitted effect of over 65% in size.

activation, inactive:
O=C(CCn1c(=O)c2cccn2c2cccnc21)N1CCN(c2ccccc2F)CC1 2.21%, COc1ccc2cc(C(=O)NCc3ccc4c(c3)CCN4C(=O)c3ccc(F)cc3)[nH]c2c1 -5.47%, O=C(COCc1cc(-c2cccs2)on1)N1CCN(c2cccc(Cl)c2)CC1 -8.42%, CC(C)OCCCNC(=O)Cn1ccc2cc(S(=O)(=O)N3CCCCCC3)ccc21 -8.89%, COc1ccc(CC(=O)NCCc2csc(-c3cccc(C)c3)n2)cc1 -12.5%, COc1ccc(C)cc1NS(=O)(=O)c1c(C(=O)N2CCCCCC2)c(C)n(C)c1C -14%, CC(C)CNC(=O)N1[C@H](c2cccs2)[C@@H](C)C(=O)[C@@H](C)[C@@H]1c1cccs1 -4.47%, Cc1cccc(OCC(=O)Nc2ccc(-c3nc4ccccc4o3)cc2)c1C -21.3%, CCn1c(=N)n(CCOc2ccc(Br)cc2)c2ccccc21 -9.59%, Cc1ccc(-n2c(=O)[nH]c3cc(C(=O)NCc4ccccc4)ccc3c2=O)cc1 0.619%, Cc1oc(-c2ccccc2Cl)nc1Cn1c(SCc2cccc(F)c2)nc2cccnc21 0.869%, Cc1nc(-c2ccccc2)sc1-c1ccc(SCC(=O)NCc2ccc(Cl)cc2)nn1 -8.7%, CC(=O)c1cccc(NC(=O)CC(c2ccc(C)cc2)N2Cc3ccccc3C2=O)c1 (configuration not stated) -23.5%, COc1cccc(-c2nnc(SCC(=O)N3CCC(C)CC3)o2)c1 -17.5%, O=C(OCc1cc(=O)n2nc(C3CCCCC3)sc2n1)c1ccccc1Cl -11.6%, COCCCNC(=O)c1ccc(-n2c(-c3ccccc3)cc3c2CCCC3)cc1 -12.9%, Cc1ccc(NC(=O)CCCn2c(=O)c3cccn3c3ccccc32)cc1C -10.9%, CC(C)CC(=O)n1nc(-c2cccnc2)nc1NCc1ccc(F)cc1 -14.7%, COc1ccc(OCC(=O)OCc2cc(=O)n3nc(-c4cccs4)sc3n2)cc1 -10.2%, OC[C@H]1O[C@@H]2O[C@H]3[C@H](O)[C@@H](O)[C@@H](O[C@H]4[C@H](O)[C@@H](O)[C@@H](O[C@H]5[C@H](O)[C@@H](O)[C@@H](O[C@H]6[C@H](O)[C@@H](O)[C@@H](O[C@H]7[C@H](O)[C@@H](O)[C@@H](O[C@H]8[C@H](O)[C@@H](O)[C@@H](O[C@H]1[C@H](O)[C@H]2O)O[C@@H]8CO)O[C@@H]7CO)O[C@@H]6CO)O[C@@H]5CO)O[C@@H]4CO)O[C@@H]3CO -17.3%, Cc1cc(C)n(-c2nc3ccccc3nc2Nc2ccc(Cl)c(C(=O)OC(C)C)c2)n1 -12%, N#Cc1c(C(F)(F)F)cc(-c2cccs2)nc1SCC(=O)Nc1ccccc1F 10.9%, CCc1ccc(O)c(C(=O)c2cnc3cc(-c4ccc(C)cc4)nn3c2)c1 3.43%, Cc1cc(C)cc(NC(=O)CSc2oc(-c3ccccc3)nc2S(=O)(=O)c2ccccc2)c1 -26.5%, Cc1ccc(Cl)cc1NC(=O)Cn1c(=O)n(Cc2ccccc2)c(=O)c2oc3ccccc3c21 -9.03%, CCn1cc2c(n1)-c1c(oc(C(=O)Nc3cccc(C)c3C)c1C)CC2 -8.52%, Cc1ccc(CCNC(=O)CCCn2c(=O)c3ccccc3n(Cc3ccccc3C#N)c2=O)cc1 -7.16%, Cc1ccc(OCC(=O)Nc2cccc(OCc3cc(=O)n4cccc(C)c4n3)c2)cc1C 8.14%, Cc1ccc(CNC(=O)CCc2c(C)nc3nc(C)nn3c2C)cc1 5.1%, CCOc1ccc(-c2cc(C(=O)NCc3ccccc3Cl)c3ccccc3n2)cc1 10.4%, O=C1Cc2cc(CCN3CCN(c4nsc5ccccc45)CC3)c(Cl)cc2N1 -8.75%, Cc1cc(C)cc(NS(=O)(=O)c2ccc3[nH]cc(C(=O)NC4CCCCC4)c(=O)c3c2)c1 -13.9%, CCn1cc(S(=O)(=O)c2ccccc2)c(=O)c2cc(F)c(N3CCCC3)cc21 -19.5%, Cc1cc2nc(-c3cccc(NC(=O)C(C)C)c3C)oc2cc1C -16.9%, COc1cc(OC)c(OC)cc1/C=C/c1nc2cc3ccccc3cc2c(=O)n1-c1ccc(F)c(Cl)c1 -16.4%, CCc1c(C)nc(SCc2nc(-c3ccccc3)no2)[nH]c1=O -2.94%, O=C(c1cc(-c2ccccc2O)on1)N1CCCCC1 -7.36%, CCN[C@H]1C[C@H](C)S(=O)(=O)c2sc(S(N)(=O)=O)cc21 -4.5%, O=C(c1ccc2c(c1)N(Cc1ccccc1F)C(=O)c1ccccc1S2(=O)=O)N1CCN(c2ccccc2F)CC1 -15.4%, COc1cc(S(N)(=O)=O)cc(C(=O)O)c1OC -8.85%, CCN(CC)C(=O)c1sc2c(c1C)c(=O)n(CCc1ccccc1)c(=O)n2Cc1ccc(F)cc1Cl -11.8%, CCOc1ccc(C(=O)Nc2ccc3nn(-c4ccc(OC)c(Cl)c4)nc3c2)cc1 -3.56%, CNC(=O)C1CCC(Cn2c(=O)c3sccc3n(CC(=O)NCc3ccc(OC)cc3)c2=O)CC1 (configuration not stated) -32.3%, COc1ccccc1NC(=O)c1c(NC(=O)COc2ccccc2)sc2c1CCCCC2 -16%, Cc1ccc(OCC(=O)Nc2cccc(-c3nc4ccccc4o3)c2C)cc1C -15.6%, O=C(Cn1c(=O)n(-c2cccc(Cl)c2)c(=O)c2sc3ccccc3c21)NC1CCCCC1 -18.4%, COc1ccc2cc(-c3nc(Cl)c4c5c(sc4n3)CC(C)CC5)c(=O)oc2c1 (configuration not stated) 4.63%, Clc1ccc(CN2CCC(CNc3ncnc4onc(-c5ccc(Cl)cc5)c34)CC2)cc1 -1.73%, O=C(CSCc1ccc(F)cc1)N1CCN(c2ccc(Cl)cc2)CC1 -2.91%, CC(=O)SC[C@@H](Cc1ccccc1)C(=O)NCC(=O)OCc1ccccc1 -10.7%, Cc1cccc(NC(=O)CSc2nc3ccccc3nc2N2CCCCC2)c1C 15.2%, COc1cc(NC(=O)C(Cc2ccccc2)NS(=O)(=O)c2cccc3nsnc23)cc(OC)c1 (configuration not stated) -0.915%, CCOc1ccc(N(CC(=O)Nc2ccccc2CC)S(=O)(=O)c2c(C)noc2C)cc1 -12.7%, COc1ccc(NC(=O)c2c(NC(=O)c3ccncc3)sc3c2CCC(C(C)(C)C)C3)cc1 (configuration not stated) -8.8%, COc1ccc(C(=O)NNc2ncnc3c2cnn3-c2ccc(C)c(Cl)c2)cc1 -4.8%, COc1cccc(Cn2c(=O)n(CCc3ccccc3)c(=O)c3c2c2cc(OC)ccc2n3C)c1 -6.5%, Cc1ccc(Cl)cc1NC(=O)C1CCN(S(=O)(=O)c2cccc3nonc23)CC1 -14.1%

— PubChem BioAssay AID1159614 (National Center for Advancing Translational Sciences (NCATS), 2016)
